# The campaign covered roughly 310,000 compounds. About 2,200 (0.71%) showed an effect of 50% or more. Effects have a minus sign here. The list shows a part of the results.
# Molecular target: human ether-à-go-go-related gene (hERG) potassium channel (human, UniProt Q12809)
# Assay: primary screen, population patch clamp on CHO cells stably expressing hERG
# human ether-à-go-go-related gene (hERG) potassium channel, sequence (Q12809 whole entry, looked up): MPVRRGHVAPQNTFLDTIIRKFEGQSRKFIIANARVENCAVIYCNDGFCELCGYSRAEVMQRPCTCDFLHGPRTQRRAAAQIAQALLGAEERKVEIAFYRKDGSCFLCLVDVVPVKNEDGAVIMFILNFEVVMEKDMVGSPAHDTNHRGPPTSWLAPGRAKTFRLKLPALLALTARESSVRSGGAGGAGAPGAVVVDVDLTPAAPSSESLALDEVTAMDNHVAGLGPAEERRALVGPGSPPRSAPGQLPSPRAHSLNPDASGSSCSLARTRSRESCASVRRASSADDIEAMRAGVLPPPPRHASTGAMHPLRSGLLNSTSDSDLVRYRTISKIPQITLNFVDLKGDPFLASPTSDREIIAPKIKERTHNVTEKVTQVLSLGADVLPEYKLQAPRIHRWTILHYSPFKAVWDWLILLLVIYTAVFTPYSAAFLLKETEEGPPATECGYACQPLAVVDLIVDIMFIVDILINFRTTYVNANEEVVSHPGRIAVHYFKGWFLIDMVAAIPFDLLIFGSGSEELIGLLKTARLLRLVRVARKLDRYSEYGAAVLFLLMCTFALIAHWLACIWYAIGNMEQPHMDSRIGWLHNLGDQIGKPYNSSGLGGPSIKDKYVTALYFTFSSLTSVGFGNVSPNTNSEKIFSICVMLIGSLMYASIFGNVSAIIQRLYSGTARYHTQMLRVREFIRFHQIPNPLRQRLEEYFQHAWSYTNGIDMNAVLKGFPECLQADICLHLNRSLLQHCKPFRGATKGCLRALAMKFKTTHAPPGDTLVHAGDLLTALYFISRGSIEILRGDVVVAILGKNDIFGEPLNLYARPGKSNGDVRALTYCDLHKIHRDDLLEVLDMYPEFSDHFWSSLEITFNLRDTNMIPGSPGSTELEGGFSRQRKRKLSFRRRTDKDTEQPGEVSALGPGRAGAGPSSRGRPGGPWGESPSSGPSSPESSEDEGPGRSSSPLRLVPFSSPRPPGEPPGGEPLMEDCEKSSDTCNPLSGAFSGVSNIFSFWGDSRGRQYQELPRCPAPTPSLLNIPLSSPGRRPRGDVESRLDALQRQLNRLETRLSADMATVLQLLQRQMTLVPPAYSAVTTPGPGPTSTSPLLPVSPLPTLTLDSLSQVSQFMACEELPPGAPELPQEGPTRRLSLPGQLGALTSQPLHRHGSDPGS
row,SMILES,"hERG current change (%, negative = inhibition) at 1uM"
1,COc1ccc(N2CCN(C3CCCN(Cc4ccc(F)cc4Cl)C3)CC2)cc1 (centres unmarked),-3.12%
2,Cc1c(Cl)c(=O)n2c(=O)c(Cl)c(C)n12,10.7%
3,CC(C)c1cccc(C(C)C)c1NC(=O)CNCC(O)c1ccccc1.O=C(O)C(=O)O (centres unmarked),10.1%
4,Cc1cn(CCC(=O)Nc2ccccc2N2CCOCC2)c2ccccc12,13.7%
5,COc1ccc(C(=O)Nc2cc(C)nn2-c2cccc(F)c2)cc1OC,11.5%
6,Cc1ccc(S(=O)(=O)NCC(=O)N2CCOCCOCCOCCOCC2)cc1,21.6%
7,O=C(CCC(=O)N1CCOc2ccccc21)NCCc1ccccc1,9.06%
8,CCC(=O)Nc1ccc(N2CCCCC2)c(C(=O)Nc2ccc(OC)cc2)c1,16.6%
9,COc1ccc2nc(NC(=O)CSc3nc(C)cc(=O)[nH]3)sc2c1,17.2%
10,CC1Oc2ccccc2N(CC(=O)Nc2ccc3c(c2)OCCO3)C1=O (centres unmarked),0.733%
11,CS(=O)(=O)N1CCN(C2CCN(Cc3ccccc3)CC2)CC1,7.88%
12,c1ccc(Oc2cnc3ccccc3n2)cc1,-2.46%
13,CCN(CC)c1nc(C(F)(F)F)nc2c1nnn2Cc1ccccc1,16.9%
14,Cc1c(NCc2nc3ccccc3[nH]2)c(=O)n(-c2ccccc2)n1C.Cl,5.74%
15,CN(CC(=O)Nc1ccc(F)cc1)C(=O)CCc1nc2ccccc2c(=O)[nH]1,14.4%
16,O=c1ccc(S(=O)(=O)N2CCCC2)cn1Cc1ccc(F)cc1,9.78%
17,O=C(Nc1ccccc1[N+](=O)[O-])c1cc(S(=O)(=O)N2CCOCC2)cs1,11.1%
18,COc1ccc(N(CC(=O)O)S(=O)(=O)c2ccccc2[N+](=O)[O-])c(OC)c1,11%
19,COc1ccc(C(=O)c2coc(-c3ccccc3C(=O)O)c2C(=O)O)cc1,4.92%
20,CN1CCC(N(C)S(=O)(=O)c2ccc(NC(=O)COc3ccc(F)cc3Cl)cc2)CC1,5.82%
21,O=C(NCc1ccc(F)cc1)c1ccc(CS(=O)(=O)Cc2ccc(F)cc2)o1,12%
22,CCc1ccc(-c2cc(C)no2)cc1S(=O)(=O)N1CCN(c2ccc(F)cc2)CC1,6.58%

row,SMILES,"hERG current change (%, negative = inhibition) at 1uM"
1,O=C1NC(c2ccc(Cl)cc2)Nc2ccccc21 (centres unmarked),7.47%
2,O=C(CSc1ccc(C(F)(F)F)cn1)Nc1ccccc1,3.4%
3,COc1cccc(/C=N/NC(=O)c2cnccn2)c1O,3.25%
4,Cc1cccc(OCC(=O)N2CCN(Cc3ccc4c(c3)OCO4)CC2)c1.O=C(O)C(=O)O,3.62%
5,O=C(N/N=C/c1ccccc1[N+](=O)[O-])c1cnccn1,10.5%
6,O=C(CN1CCCCCC1)NCc1ccccc1,11.8%
7,O=C(COc1ccc(F)cc1Cl)Nc1cccc(S(=O)(=O)N2CCCCCC2)c1,8.73%
8,CCOC(=O)c1cc(-c2ccc([N+](=O)[O-])cc2)nc2c1c(=O)[nH]c(=O)n2Cc1ccccc1,15.8%
9,COc1cc(-c2nnc(COc3ccc4cc(Br)ccc4c3)o2)cc(OC)c1OC,16.9%
10,COc1ccc(CNC(=O)C2CCN(C(=O)Cc3ccccc3)CC2)cc1,0.341%
11,Cc1ccc(/C=C2\SC(=S)N(c3cccnc3)C2=O)cc1,9.76%
12,O=C1NC(=O)/C(=C\c2ccc(OCc3cnc(Cl)s3)cc2)S1,10.9%
13,CCCN(CC1CC1)C(=O)CSc1ncnc2sc(C)c(C)c12,-7.45%
14,CCCn1c(N)c(N(CCOC)C(=O)c2ccccc2F)c(=O)[nH]c1=O,9.25%
15,Cc1ccc(CNC(=O)C2CCCN(S(=O)(=O)c3c(C)noc3/C=C/N(C)C)C2)cc1 (centres unmarked),8.02%
16,Cc1ccc(SC(C)C(=O)Nc2ccccc2-c2ccccc2)cc1 (centres unmarked),7.89%
17,O=[N+]([O-])c1ccc(CSc2nnc(SCc3ccccc3)s2)cc1,12.5%
18,O=C(Nc1ccc(-c2nnc(-c3ccccc3)o2)cc1)C1CCCO1 (centres unmarked),4.38%
19,C/C(N)=C(/C#N)C(=O)COC(=O)CC12CC3CC(CC(C3)C1)C2,14.2%
20,CC(C)=CCc1c(O)cc2c(c1O)C(=O)CC(c1ccccc1)O2 (centres unmarked),12.9%
21,COc1ccc(CNC(=O)c2cc(SC)ccc2Cl)cc1OC,5.58%
22,CS(=O)(=O)NCCCNc1c(Cl)cccc1[N+](=O)[O-],-2.75%

# From article PMC4336329 (PLoS ONE, 2015)
